# Data as given in the supplement of paper PMC8728848.
# This is one part of the list.
# Columns and labels:
# Experiment in all cases: glycan array binding signal (z-score within array); higher = stronger binding
# Settings in all cases: glycan notation: IUPAC condensed, linker removed
# [1] = target: Gal3S(b1-4)GlcNAc6S
# Outline: (§1)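 Glycan array binding is given as a within-array Z-score, which can be read as non-binding when negative. The arrays, 3228 of them, came from the Consortium for Functional Glycomics database and were retained only where the protein sequence was available. Z-scores were averaged across arrays of the same protein sequence at different concentrations or buffers and across linkers.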
# [2] = target: Gal3S(b1-4)[Fuc(a1-3)]Glc
# Outline: as §1
# [3] = target: Gal3S(b1-4)[Fuc(a1-3)]Glc6S
# Outline: as §1
# [4] = target: Gal3S(b1-4)[Fuc(a1-3)]GlcNAc
# Outline: as §1
# [5] = target: Gal3S(b1-4)[Fuc(a1-3)]GlcNAc6S
# Outline: as §1
# [6] = target: Gal3S4S(b1-4)GlcNAc
# Outline: as §1
# [7] = target: Gal3S6S(b1-4)GlcNAc
# Outline: as §1
# [8] = target: Gal3S6S(b1-4)GlcNAc6S
# Outline: as §1
# [9] = target: Gal4S(b1-4)GlcNAc
# Outline: as §1
# [10] = target: Gal4S6S(b1-4)GlcNAc
# Outline: as §1
# [11] = target: Gal6P(b1-4)GlcNAc
# Outline: as §1
# [12] = target: Gal6S(b1-3)GlcNAc
# Outline: as §1
# [13] = target: Gal6S(b1-3)GlcNAc6S
# Outline: as §1
# [14] = target: Gal6S(b1-4)Glc
# Outline: as §1
# [15] = target: Gal6S(b1-4)Glc6S
# Outline: as §1
# [16] = target: Gal6S(b1-4)GlcNAc
# Outline: as §1
# [17] = target: Gal6S(b1-4)GlcNAc6S
# Outline: as §1
# [18] = target: GalNAc(a1-3)Gal
# Outline: as §1
# [19] = target: GalNAc(a1-3)GalNAc
# Outline: as §1
# [20] = target: GalNAc(a1-3)GalNAc(a1-3)Gal(a1-4)Gal(b1-4)GlcNAc
# Outline: as §1
# [21] = target: GalNAc(a1-3)GalNAc(b1-3)Gal(a1-4)Gal(b1-4)Glc
# Outline: as §1
# [22] = target: GalNAc(a1-3)GalNAc(b1-3)Gal(a1-4)Gal(b1-4)GlcNAc
# Outline: as §1
# [23] = target: GalNAc(b1-3)Gal
# Outline: as §1
# [24] = target: GalNAc(b1-3)Gal(a1-4)Gal(b1-4)GlcNAc
# Outline: as §1
# [25] = target: GalNAc(b1-3)Gal(a1-4)Gal(b1-4)GlcNAc(b1-3)Gal(b1-4)Glc
# Outline: as §1
# [26] = target: GalNAc(b1-3)Gal(a1-6)Gal(b1-4)Glc
# Outline: as §1
# [27] = target: GalNAc(b1-3)GalNAc
# Outline: as §1
# [28] = target: GalNAc(b1-3)GlcNAc
# Outline: as §1
# [29] = target: GalNAc(b1-4)Gal(b1-4)Glc
# Outline: as §1
# [30] = target: GalNAc(b1-4)GlcNAc
# Outline: as §1
# [31] = target: GalNAc(b1-4)GlcNAc(b1-2)Man
# Outline: as §1
# [32] = target: GalNAc(b1-4)GlcNAc(b1-2)Man(a1-3)[GalNAc(b1-4)GlcNAc(b1-2)Man(a1-6)]Man(b1-4)GlcNAc(b1-4)GlcNAc
# Outline: as §1
# [33] = target: GalNAc(b1-4)GlcNAc(b1-3)GalNAc(b1-4)GlcNAc
# Outline: as §1
# [34] = target: GalNAc(b1-4)GlcNAc6S
# Outline: as §1
# [35] = target: GalNAc(b1-6)GalNAc
# Outline: as §1
# [36] = target: GalNAc3S(b1-4)GlcNAc
# Outline: as §1
# [37] = target: GalNAc3S(b1-4)GlcNAc3S
# Outline: as §1
# [38] = target: GalNAc3S(b1-4)[Fuc(a1-3)]GlcNAc
# Outline: as §1
# [39] = target: GalNAc4S6S(b1-4)GlcNAc
# Outline: as §1
# [40] = target: GalNAc6S(b1-4)GlcNAc
# Outline: as §1
# [41] = target: Glc(a1-4)Glc
# Outline: as §1
# [42] = target: Glc(a1-4)Glc(a1-4)Glc(a1-4)Glc
# Outline: as §1
# [43] = target: Glc(a1-6)Glc(a1-6)Glc
# Outline: as §1
# [44] = target: Glc(a1-6)Glc(a1-6)Glc(a1-6)Glc
# Outline: as §1
# [45] = target: Glc(b1-4)Glc
# Outline: as §1
binder,measurement,setting,value
"AAL (Agrocybe aegerita), Q6WY08 (protein) MQGVNIYNISAGTSVDLAAPVTTGDIVTFFSSALNLNAGAGNPNNTTLNLFAENGAYLLHIAFRLQENVIIFNSRQPDGPWLVEQRVSDVANQFAGIDGKAMVTVFDHGDKYQVVINEKTVIQYTKQISGLTLSLSYNATEETSIFSTVVEAVTYTGLALEHHHHHH",glycan array binding signal (z-score),[1],3.66
same,glycan array binding signal (z-score),[2],-0.154
same,glycan array binding signal (z-score),[3],-0.124
same,glycan array binding signal (z-score),[4],-0.124
same,glycan array binding signal (z-score),[5],0.878
same,glycan array binding signal (z-score),[6],-0.149
same,glycan array binding signal (z-score),[7],-0.14
same,glycan array binding signal (z-score),[8],-0.139
same,glycan array binding signal (z-score),[9],-0.15
same,glycan array binding signal (z-score),[10],-0.149
same,glycan array binding signal (z-score),[11],-0.127
same,glycan array binding signal (z-score),[12],-0.136
same,glycan array binding signal (z-score),[13],-0.129
same,glycan array binding signal (z-score),[14],-0.141
same,glycan array binding signal (z-score),[15],-0.096
same,glycan array binding signal (z-score),[16],-0.148
same,glycan array binding signal (z-score),[17],-0.163
same,glycan array binding signal (z-score),[18],-0.139
same,glycan array binding signal (z-score),[19],-0.145
same,glycan array binding signal (z-score),[20],-0.158
same,glycan array binding signal (z-score),[21],-0.136
same,glycan array binding signal (z-score),[22],-0.137
same,glycan array binding signal (z-score),[23],-0.152
same,glycan array binding signal (z-score),[24],-0.142
same,glycan array binding signal (z-score),[25],-0.153
same,glycan array binding signal (z-score),[26],-0.133
same,glycan array binding signal (z-score),[27],-0.156
same,glycan array binding signal (z-score),[28],-0.143
same,glycan array binding signal (z-score),[29],-0.085
same,glycan array binding signal (z-score),[30],-0.136
same,glycan array binding signal (z-score),[31],-0.16
same,glycan array binding signal (z-score),[32],-0.149
same,glycan array binding signal (z-score),[33],-0.134
same,glycan array binding signal (z-score),[34],-0.141
same,glycan array binding signal (z-score),[35],-0.149
same,glycan array binding signal (z-score),[36],-0.128
same,glycan array binding signal (z-score),[37],-0.132
same,glycan array binding signal (z-score),[38],-0.144
same,glycan array binding signal (z-score),[39],-0.157
same,glycan array binding signal (z-score),[40],-0.134
same,glycan array binding signal (z-score),[41],-0.134
same,glycan array binding signal (z-score),[42],-0.106
same,glycan array binding signal (z-score),[43],-0.152
same,glycan array binding signal (z-score),[44],-0.126
same,glycan array binding signal (z-score),[45],-0.134
